# Some of the results follow. The full chains were built here from the parent and the listed change. Inactive controls read about 0.05.
# B1: TEV protease; numbered along this chain (parent)
# chain: MGESLFKGPRDYNPISSSICHLTNESDGHTTSLYGIGFGPFIITNKHLFRRNNGTLVVQSLHGVFKVKDTTTLQQHLVDGRDMIIIRMPKDFPPFPQKLKFREPQREERICLVTTNFQTKSMSSMVSDTSCTFPSGDGIFWKHWIQTKDGQCGSPLVSTRDGFIVGIHSASNFTNTNNYFTSVPKNFMELLTNQEAQQWVSGWRLNADSVLWGGHKVFMVKPEEPFQPVKEATQL
# Variants of: B1
# Test: raw area under fraction-flipped curve 0-4 h after induction (AUC4h, not background-subtracted), DNA-recorder readout of cleavage of the substrate (dimensionless); higher = more cleavage of the substrate by the protease variant
# Conditions: temperature: 34 °C; time window: 0-4 h after rhamnose induction
# Experimental: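 In vivo DNA recorder in E. coli TOP10(DE3) ΔrhaA at 34 °C. Each TEVp single-site mutant (parent TEVp 0) is paired with a single-site variant of the 7-mer TEVs (canonical ENLYFQ|S). The substrate sits between flexible linkers in a Bxb1-sfGFP-TEVs-SsrA fusion, so cleavage stabilises Bxb1 and speeds flipping of a recombination array, read by NGS. The value is the raw area under the fraction-flipped curve over 0-4 h after rhamnose induction (AUC4h), with ≥20 reads per time point. It is not background-subtracted; inactive controls average about 0.047.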
# 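Also: Bxb1 expression induced with 0.2% (w/v) L-rhamnose at OD600 near 0.5, cultures sampled hourly, flipped fraction per protease–substrate barcode pair counted by paired-end Illumina sequencing.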
variant,measurement,value
D137Q,area with substrate ENLYFQA,0.0878
same,area with substrate ENLYFQD,0.0905
same,area with substrate ENLYFQG,0.114
same,area with substrate ENLYFQH,0.0652
same,area with substrate ENLYFQI,0.0677
same,area with substrate ENLYFQK,0.0703
same,area with substrate ENLYFQN,0.0775
same,area with substrate ENLYFQP,0.047
same,area with substrate ENLYFQQ,0.0704
same,area with substrate ENLYFQR,0.0467
same,area with substrate ENLYFQS,0.0986
same,area with substrate ENLYFQW,0.0563
D137T,area with substrate ENLYFQA,0.117
same,area with substrate ENLYFQC,0.0695
same,area with substrate ENLYFQP,0.0447
same,area with substrate ENLYFQS,0.106
same,area with substrate ENLYFQT,0.0631
S201N,area with substrate ENLYFQA,0.085
same,area with substrate ENLYFQC,0.11
same,area with substrate ENLYFQF,0.0764
same,area with substrate ENLYFQG,0.0837
same,area with substrate ENLYFQL,0.063
same,area with substrate ENLYFQM,0.0943
same,area with substrate ENLYFQN,0.0558
same,area with substrate ENLYFQR,0.0605
same,area with substrate ENLYFQS,0.0893
same,area with substrate ENLYFQT,0.055
same,area with substrate ENLYFQW,0.082
same,area with substrate ENLYFQY,0.0584
A196V,area with substrate ENLYFQA,0.0748
same,area with substrate ENLYFQF,0.0873
same,area with substrate ENLYFQI,0.087
same,area with substrate ENLYFQL,0.0832
same,area with substrate ENLYFQN,0.0995
same,area with substrate ENLYFQP,0.0376
same,area with substrate ENLYFQR,0.0639
same,area with substrate ENLYFQS,0.0951
same,area with substrate ENLYFQV,0.0648
P89A,area with substrate ENLYFQA,0.087
same,area with substrate ENLYFQH,0.0548
same,area with substrate ENLYFQI,0.0553
same,area with substrate ENLYFQL,0.0599
same,area with substrate ENLYFQN,0.0661
same,area with substrate ENLYFQP,0.0652
same,area with substrate ENLYFQR,0.0767
same,area with substrate ENLYFQS,0.0901
same,area with substrate ENLYFQV,0.0544
T31I,area with substrate ENLYFQA,0.152
same,area with substrate ENLYFQC,0.12
same,area with substrate ENLYFQD,0.0502
same,area with substrate ENLYFQG,0.104
same,area with substrate ENLYFQK,0.0651
same,area with substrate ENLYFQL,0.0635
same,area with substrate ENLYFQN,0.0598
same,area with substrate ENLYFQP,0.0463
same,area with substrate ENLYFQQ,0.064
same,area with substrate ENLYFQR,0.0706
same,area with substrate ENLYFQS,0.103
same,area with substrate ENLYFQV,0.0638
same,area with substrate ENLYFQW,0.0389
G153C,area with substrate ENLYFQA,0.0451
same,area with substrate ENLYFQC,0.0528
same,area with substrate ENLYFQG,0.0573
same,area with substrate ENLYFQH,0.0565
same,area with substrate ENLYFQL,0.0939
same,area with substrate ENLYFQM,0.0542
same,area with substrate ENLYFQN,0.0617
same,area with substrate ENLYFQP,0.0323
same,area with substrate ENLYFQQ,0.0473
same,area with substrate ENLYFQS,0.0561
G153T,area with substrate ENLYFQA,0.0613
same,area with substrate ENLYFQC,0.0372
same,area with substrate ENLYFQG,0.0556
same,area with substrate ENLYFQK,0.0632
same,area with substrate ENLYFQL,0.053
same,area with substrate ENLYFQN,0.0452
same,area with substrate ENLYFQR,0.0469
same,area with substrate ENLYFQS,0.0464
L190P,area with substrate ENLYFQA,0.0685
same,area with substrate ENLYFQC,0.0868
same,area with substrate ENLYFQG,0.0813
same,area with substrate ENLYFQI,0.0632
same,area with substrate ENLYFQK,0.0688
same,area with substrate ENLYFQQ,0.0646
same,area with substrate ENLYFQR,0.0638
same,area with substrate ENLYFQS,0.0851
same,area with substrate ENLYFQT,0.0616
same,area with substrate ENLYFQW,0.0643
same,area with substrate ENLYFQY,0.0604
L22M,area with substrate ENLYFQA,0.073
same,area with substrate ENLYFQC,0.139
same,area with substrate ENLYFQD,0.0751
same,area with substrate ENLYFQF,0.0805
same,area with substrate ENLYFQG,0.109
same,area with substrate ENLYFQH,0.0746
same,area with substrate ENLYFQK,0.0532
same,area with substrate ENLYFQL,0.0546
same,area with substrate ENLYFQM,0.0711
same,area with substrate ENLYFQP,0.055
same,area with substrate ENLYFQQ,0.0699
same,area with substrate ENLYFQR,0.0756
same,area with substrate ENLYFQS,0.0988
same,area with substrate ENLYFQT,0.0568
same,area with substrate ENLYFQV,0.0473
same,area with substrate ENLYFQW,0.0604
same,area with substrate ENLYFQY,0.0662
F6T,area with substrate ENLYFQA,0.112
same,area with substrate ENLYFQG,0.0838
same,area with substrate ENLYFQM,0.0699
same,area with substrate ENLYFQN,0.0608
same,area with substrate ENLYFQS,0.108
same,area with substrate ENLYFQW,0.0617
same,area with substrate ENLYFQY,0.0896
T115Q,area with substrate ENLYFQA,0.123
same,area with substrate ENLYFQC,0.14
same,area with substrate ENLYFQF,0.084
same,area with substrate ENLYFQG,0.103
same,area with substrate ENLYFQH,0.0983
same,area with substrate ENLYFQI,0.0659
same,area with substrate ENLYFQL,0.0613
same,area with substrate ENLYFQM,0.0518
same,area with substrate ENLYFQP,0.0415
same,area with substrate ENLYFQQ,0.0791
same,area with substrate ENLYFQR,0.0539
same,area with substrate ENLYFQS,0.111
same,area with substrate ENLYFQV,0.0635
same,area with substrate ENLYFQW,0.0615
same,area with substrate ENLYFQY,0.0778
L235C,area with substrate ENLYFQA,0.0862
same,area with substrate ENLYFQC,0.0877
same,area with substrate ENLYFQH,0.0686
same,area with substrate ENLYFQM,0.0546
same,area with substrate ENLYFQP,0.0561
same,area with substrate ENLYFQR,0.0519
same,area with substrate ENLYFQS,0.0934
same,area with substrate ENLYFQT,0.0825
same,area with substrate ENLYFQV,0.0741
same,area with substrate ENLYFQY,0.0581
S209K,area with substrate ENLYFQA,0.0814
same,area with substrate ENLYFQC,0.112
same,area with substrate ENLYFQI,0.0589
same,area with substrate ENLYFQQ,0.0679
same,area with substrate ENLYFQS,0.0823
same,area with substrate ENLYFQT,0.0642
same,area with substrate ENLYFQW,0.0598
G150Y,area with substrate ENLYFQA,0.0587
same,area with substrate ENLYFQC,0.0592
same,area with substrate ENLYFQG,0.185
same,area with substrate ENLYFQH,0.0511
same,area with substrate ENLYFQL,0.0554
same,area with substrate ENLYFQM,0.054
same,area with substrate ENLYFQN,0.0632
same,area with substrate ENLYFQP,0.0507
same,area with substrate ENLYFQQ,0.0196
same,area with substrate ENLYFQR,0.0405
same,area with substrate ENLYFQS,0.0582
same,area with substrate ENLYFQT,0.0531
same,area with substrate ENLYFQW,0.0654
Q97C,area with substrate ENLYFQA,0.0826
same,area with substrate ENLYFQS,0.0967
same,area with substrate ENLYFQY,0.0842
Q97L,area with substrate ENLYFQA,0.0895
same,area with substrate ENLYFQL,0.0588
same,area with substrate ENLYFQS,0.105
Q97E,area with substrate ENLYFQA,0.117
same,area with substrate ENLYFQI,0.0186
same,area with substrate ENLYFQS,0.104

# — the supplement of paper PMC12217912
